These results are taken from article PMC4336329 (PLoS ONE, 2015).

Hit rate of the full screen: of about 310,000 compounds, about 14,000 (4.5%) showed an effect of 50% or more. The effect is printed as a negative number. The list shows a part of the results.
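Also: peak tail current of the secondary pulse compared with the same well before compound.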

In the assay the target is human ether-à-go-go-related gene (hERG) potassium channel (human, UniProt Q12809). Description: primary screen, population patch clamp on CHO cells stably expressing hERG.
human ether-à-go-go-related gene (hERG) potassium channel, sequence (Q12809 whole entry, looked up): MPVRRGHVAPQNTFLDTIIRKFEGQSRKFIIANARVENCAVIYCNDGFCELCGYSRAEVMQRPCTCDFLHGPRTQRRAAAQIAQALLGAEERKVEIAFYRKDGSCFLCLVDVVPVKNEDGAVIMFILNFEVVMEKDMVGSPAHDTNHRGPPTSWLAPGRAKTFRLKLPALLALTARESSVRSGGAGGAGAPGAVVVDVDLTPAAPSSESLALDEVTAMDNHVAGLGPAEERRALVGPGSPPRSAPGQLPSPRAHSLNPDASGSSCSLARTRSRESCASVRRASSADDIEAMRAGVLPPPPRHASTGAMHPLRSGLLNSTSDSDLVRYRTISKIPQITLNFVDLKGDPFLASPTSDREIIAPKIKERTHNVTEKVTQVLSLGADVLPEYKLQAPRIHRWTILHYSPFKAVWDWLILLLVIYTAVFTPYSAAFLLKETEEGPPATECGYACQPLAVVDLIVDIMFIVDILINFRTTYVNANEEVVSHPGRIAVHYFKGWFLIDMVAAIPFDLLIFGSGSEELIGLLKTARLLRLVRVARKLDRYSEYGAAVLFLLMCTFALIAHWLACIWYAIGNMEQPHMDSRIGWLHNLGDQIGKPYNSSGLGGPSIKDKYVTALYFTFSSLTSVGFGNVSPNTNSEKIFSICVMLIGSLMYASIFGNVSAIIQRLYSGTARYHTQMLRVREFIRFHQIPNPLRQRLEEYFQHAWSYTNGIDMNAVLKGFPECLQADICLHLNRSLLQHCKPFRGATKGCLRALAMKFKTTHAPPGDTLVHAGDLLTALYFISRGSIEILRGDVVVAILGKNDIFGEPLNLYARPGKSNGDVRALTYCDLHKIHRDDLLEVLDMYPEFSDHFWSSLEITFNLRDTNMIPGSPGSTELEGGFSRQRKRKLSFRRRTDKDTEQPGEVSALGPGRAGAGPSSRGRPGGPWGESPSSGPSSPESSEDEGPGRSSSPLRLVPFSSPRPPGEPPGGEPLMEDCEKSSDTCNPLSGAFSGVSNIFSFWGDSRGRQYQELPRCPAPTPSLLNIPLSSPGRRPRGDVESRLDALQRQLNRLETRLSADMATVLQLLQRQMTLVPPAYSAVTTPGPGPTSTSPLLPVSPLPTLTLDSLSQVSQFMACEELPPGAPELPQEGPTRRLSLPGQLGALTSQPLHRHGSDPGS
Consider `CC(C)(C)c1cc(C(=O)NN)n(Cc2ccc(F)cc2)n1`, for which the “hERG current change (%, negative = inhibition) at 10uM” value is recorded as -5.6%.
The figure for `COc1cccc(CNS(=O)(=O)c2ccc3c(c2)CC(C)N3C(=O)C2CC2)c1` (stereo not shown) is 18.5%; for `CCCCNC(=S)NCCN1CCCCC1.O=C(O)C(=O)O` it is -21.1%.
The figure for `C=CCCN(C1CCCC1)S(=O)(=O)c1ccccc1Br` is 4.52%; for `Cc1ccc(CC(=O)O/N=C(\N)c2ccccn2)cc1` it is -5.06%.
To `CCCN1C2CCCC1CC(NC(=O)c1ccccc1)C2` (stereo not shown) belongs -18.9%.
Consider `Cc1cc(C)c2ccc(/C=N/O)nc2c1O`, for which the “hERG current change (%, negative = inhibition) at 10uM” value worked out at 6.06%.
For `COc1ccccc1C(=O)NC(=O)COC(=O)CNC(=O)c1ccc(Cl)cc1Cl`, the “hERG current change (%, negative = inhibition) at 10uM” value is listed as 15.2%.
`COC(=O)c1ccccc1Nc1ccnc(Cl)n1`: the “hERG current change (%, negative = inhibition) at 10uM” value is recorded as 3.31%.
To `C=CCNC(=S)Nc1ccc(C)c(S(=O)(=O)N2CCCCC2)c1` belongs -18.2%; to `CC(C)c1ccc(/C=N/NC(=O)CCNC(=O)c2ccccc2)cc1`, -46.9%.
In the case of `COc1ccc(OC)c(S(=O)(=O)Nc2cc(OC)c(Cl)cc2OC)c1`, the “hERG current change (%, negative = inhibition) at 10uM” value was -1.68%.
To `COc1ccc(C2C(C(=O)OCC(=O)NC(C)(C)C)CCC(=O)N2c2ccc(C)cc2)cc1OC` (stereo not shown) belongs -3.73%; to `O=C(Nc1nccs1)c1ccc(N2C(=O)[C@@H]3[C@H](C2=O)[C@H]2C=C[C@@H]3C2)cc1`, -0.0452%; to `CCCc1nnc(SCC(=O)N2CCCCC2C)n1CCOC` (stereo not shown), 5.36%.
The figure for `Cc1cc(C)n(CC(C)NCc2c(C(=O)N3CCOCC3)nc3c(C)cccn23)n1` (stereo not shown) is 16.8%; for `CCOc1ccc(C2CC(c3ccccc3C)n3ncnc3N2)cc1` (stereo not shown) it is 2.8%.
The figure for `CC(=O)N1c2ccccc2CCc2ccc([N+](=O)[O-])cc21` is 2.5%; for `O=C1/C(=C/c2cccc(O)c2)SC(=S)N1CC1CCCO1` (stereo not shown) it is 5.14%; for `O=C(COC(=O)c1c2c(nc3ccccc13)/C(=C\c1cccs1)CCC2)Nc1ccccc1` it is -9.7%.
For the molecule `O=C(CN1C(=O)c2ccccc2S1(=O)=O)NCCSCc1ccco1`, the “hERG current change (%, negative = inhibition) at 10uM” value was -9.29%.
`CCOC(=O)c1ccc(NC(=O)c2c(C)[nH]c(C(=O)OCC)c2C)cc1`: the “hERG current change (%, negative = inhibition) at 10uM” value is recorded as -6.95%.
To `OCc1nc(CO)n(Cc2ccccc2)n1` belongs -10.5%; to `COc1cc(NC(=O)COC(=O)C=C(C)C)c(C)cc1[N+](=O)[O-]`, -2.51%; to `NS(=O)(=O)c1ccc(NC(=O)/C=C/c2ccco2)cc1`, 9.69%.
The figure for `O=C(O)c1nn(CC(=O)N2CCCCCC2)c(=O)c2ccccc12` is 2.16%; for `O=c1[nH]c(=O)n(CCC2=CCCCC2)c(O)c1C=NCc1cccnc1` it is -6.53%.
The figure for `O=C(CSc1nnc(C2COc3ccccc3O2)o1)N1CCN(c2ccccc2)CC1` (stereo not shown) is 8.03%; for `N#Cc1c(N2CCN(C(=O)c3ccco3)CC2)nc(-c2ccccc2)c2c1CCCC2` it is -5.84%.
As for `CCCCCCn1cnc2c(oc3nc4c(cc32)CCCC4)c1=O`, the “hERG current change (%, negative = inhibition) at 10uM” value amounted to 5.16%.
To `Cc1c(NC(=O)C2CCCCC2)cc(C(=O)N2CCOCC2)cc1[N+](=O)[O-]` belongs -3.33%; to `CN1CC2([N+](=O)[O-])CC=C(Oc3ccccc3)C([N+](=O)[O-])(C1)C2` (stereo not shown), 4.85%.
The figure for `COc1ccc(NC(=O)CSc2nc3[nH]ncc3c(=O)[nH]2)cc1OC` is 7.74%; for `O=C(c1cc2ccccc2o1)N(Cc1ccco1)Cc1cccs1` it is -35.4%.
Consider `COc1ccccc1CCN1CCCC(CN(C)CC(C)(C)CO)C1` (stereo not shown), for which the “hERG current change (%, negative = inhibition) at 10uM” value is recorded as -0.609%.
The figure for `O=C(Nc1ccccc1N1CCOCC1)C1(c2ccc(Cl)cc2)CCC1` is 13.4%.
As to `COc1ccc2[nH]c(=O)c(CN(C(=O)c3ccncc3)C(C)(C)C)cc2c1`, the “hERG current change (%, negative = inhibition) at 10uM” value was found to be 11.8%.
To `O=C(Oc1nsnc1N1CCCCC1)N1CCOCC1` belongs 15.5%; to `Nc1nnc(Cc2ccc(Cl)cc2)s1`, 3.36%.
To `Cc1ccc(Cn2cccc2/C=N/NC(=S)Nc2ccc(C)cc2)cc1` belongs 14.7%; to `COCCNC(=S)N/N=C(\C)c1ccc(C)c([N+](=O)[O-])c1`, -26.6%.
To `Cn1c(N)c(C(=O)COC(=O)C2CCN(S(=O)(=O)c3cccs3)CC2)c(=O)n(C)c1=O` belongs -35.2%; to `Cc1ccc(N2C(=O)c3ccccc3C2Nc2ccccc2F)nc1` (stereo not shown), 5.5%.
For `Cc1cc(C)c(S(=O)(=O)N(C)CC(=O)N2CCCCC2)c(C)c1`, the “hERG current change (%, negative = inhibition) at 10uM” value is -13.7%.
To `CCn1cc(/C=N\NC(=O)c2ccc(Cl)cc2)cn1` belongs -0.233%; to `O=C(Cc1cccs1)Nc1nnc(SCc2cccc3ccccc23)s1`, -7.66%; to `Nc1nc(N)nc(-c2ccccn2)n1`, 1.82%.
`CC1CCN(C(=O)CN2C(=O)C(C)(C)Oc3ccc(C(=O)NC(C)C)cc32)CC1`: the “hERG current change (%, negative = inhibition) at 10uM” value is given as -8.44%.
The figure for `O=C(CNC(=O)c1ccc([N+](=O)[O-])cc1)c1ccccc1` is -6.36%.
The figure for `C/C=C(\C)CN1CCC(Oc2ccc(C(=O)NCc3ccccn3)cc2)CC1` is 3.53%; for `Cc1ccc(N=C/C(C(=O)C(F)(F)F)=C(\O)c2cccs2)cc1` it is 23.3%.
Take `CC(=O)c1c(C)oc2ccc(N(C(C)=O)S(=O)(=O)c3cccc([N+](=O)[O-])c3)cc12`: the “hERG current change (%, negative = inhibition) at 10uM” value is recorded as 8.76%.
`Cc1nn(-c2ccccc2)c(N2CCCC2)c1/C=C1\N=C(c2ccc(F)cc2)OC1=O`: the “hERG current change (%, negative = inhibition) at 10uM” value came out at 10.6%.
Take `CS(=O)(=O)c1ccc2nc(NC(=O)C3CC(=O)N(c4ccc(F)cc4)C3)sc2c1` (stereo not shown): the “hERG current change (%, negative = inhibition) at 10uM” value is -7.42%.
To `COc1cccc2c1OC1(C)CC2NC(=O)N1c1cccc(C(=O)Nc2ccc3c(c2)OCCO3)c1` (stereo not shown) belongs 0.486%; to `O=C(NC1CCCCCCC1)C1=COCCO1`, 14.4%; to `NC(=O)C1CCN(c2cc(Cl)ccc2[N+](=O)[O-])CC1`, 3.89%.
To `CC(C)(C)CC(=O)O/N=C(\N)c1ccncc1` belongs 7.32%.
To `COC(=O)c1ccc(COc2ccccc2/C=N/NC(=O)c2cccnc2)cc1` belongs 28.7%; to `CCOC(=O)CC1ON(C)C(=O)N1c1ccc(Cl)cc1Cl` (stereo not shown), -21.7%.
On to `CCc1c(O)nc(SCC(=O)c2ccccc2)n(-c2ccccc2)c1=O`, for which the “hERG current change (%, negative = inhibition) at 10uM” value is given as 14.2%.
The figure for `COC(=O)C(C(=O)OC)=C(/C=C/N(C)C)N(C)C` is 1.95%; for `CCOc1ccc(C(=O)NCc2cccs2)cc1` it is -2.2%.
To `CCOC(=O)c1c(N)nn(C(=O)C(C)(C)C)c1-c1ccccc1` belongs 11.4%.
Turning to `COCCNS(=O)(=O)c1ccc(SC)cc1`, the “hERG current change (%, negative = inhibition) at 10uM” value was 10.2%.
The figure for `C=CCn1c(COc2ccccc2)nc2ccccc21` is -7.62%; for `Cc1cc(C(=O)OCC(=O)c2ccc(Cl)c([N+](=O)[O-])c2)c2cccc(C)c2n1` it is 6.36%; for `COC(=O)c1sccc1NC(=O)c1ccco1` it is 14.8%.
To `Cc1nc2ccccc2c(=O)n1CC(=O)N1CCOCC1` belongs 6.19%; to `O=C(O)C[C@H]1c2cc(C(F)(F)F)ccc2S(=O)(=O)N1C1CCCCC1`, 30.3%.
`CC(C)(C)C(=O)CSc1ncccn1`: the “hERG current change (%, negative = inhibition) at 10uM” value is listed as 36.3%.
For `CN(C)CCCSc1ccccc1NC(=O)/C=C/c1ccccc1.Cl.O`, the “hERG current change (%, negative = inhibition) at 10uM” value is given as -29.5%.
To `Cc1ccc2c(c1)c1c3n2CCN(C(=O)C2CC2)C3CCC1` (stereo not shown) belongs -17.1%.
To `Cc1ccc(CNC(=O)CNC(=O)c2ccc(Br)o2)cc1` belongs 5.03%; to `CCOc1ccc(CCNC(=O)COc2cc(=O)n(C)c3ccccc23)cc1OCC`, -16.7%.
To `Cc1cc(C)cc(-n2c(O)c(C=NC3CCS(=O)(=O)C3)c3ccccc3c2=O)c1` (stereo not shown) belongs -19.4%; to `COc1ccccc1CNCC(=O)Nc1ccc(N(C)C)cc1.O=C(O)C(=O)O`, 11.4%.
With `Cc1ccc(Cl)cc1N1CCN(C(=S)NCCc2ccccc2)CC1`, the “hERG current change (%, negative = inhibition) at 10uM” value is recorded as 19.7%.
To `CCOC(=O)/C=c1\s/c(=C\c2ccccc2OC)c(=O)n1CC(=O)N1CCOCC1` belongs -3.88%; to `Cc1cc(C)c(C#N)c(SCc2ccccc2F)n1`, 21.2%.
The figure for `CCOC(=O)N1CCN(C(=O)Cn2ncc3ccccc32)CC1` is 8.94%.
To `Cc1cccc(NC(=O)CSCC(=O)N=c2sccn2C)c1` belongs -20.2%; to `Cc1cc(=O)[nH]c(SCC(=O)NN(c2ccccc2)c2ccccc2)n1`, 0.845%; to `COc1cc2c(cc1OC)C(COc1ccccc1OC)N(C(=O)C(C)(C)C)CC2` (stereo not shown), -2.37%.
Consider `COCC(=O)N1CCC(Oc2ccc(C(=O)N3CCCCC3COC)cc2)CC1` (stereo not shown), for which the “hERG current change (%, negative = inhibition) at 10uM” value was determined as 16.8%.
To `CCCCn1c(N)c(N(CC(C)C)C(=O)c2cccs2)c(=O)[nH]c1=O` belongs 2.2%; to `COc1ccc([N+](=O)[O-])cc1NC(=O)CSc1nc(C)cc(C)n1`, -5.69%; to `Cn1c(=O)c2[nH]c(N=NNc3ccccc3F)nc2n(C)c1=O`, -4.08%.
On to `O=C1CCCC2=C1C(c1ccco1)Nc1ccc(C(=O)c3ccccc3)cc1N2` (stereo not shown), for which the “hERG current change (%, negative = inhibition) at 10uM” value is given as 6.94%.
To `Nc1c(-c2ccccc2)cnc2ncnn12` belongs 4.56%; to `Cc1ccccc1-c1nn(-c2ccc(F)cc2F)cc1CNCCCO`, -11.2%.
